Assay results taken from patent publication US5473056, “E2F-2, a novel mammalian transcription factor” (Merck & Co., Inc., dated 1995).

Biological target: recombinant pRb60 (Homo sapiens (Human), UniProt P06400)
Assay: co-immunoprecipitation with anti-pRb monoclonal antibody, anti-GST Western blot
Procedure: For pRb60 binding assays, 50 µl of normalized lysates were incubated with or without 0.6 µg purified pRb60 in a final volume of 100 µl phosphate-buffered saline-0.1% NP40 for 1.5 hr at 4° C. Where indicated, partially purified GST-E1A was also included in the binding reaction as a competitor. The pRb60 and any associated proteins were then recovered using monoclonal anti-pRb antibody XZ55 (prepared as descibed in G. Hu et al., *Mol. Cell. Biol.*, 11:5792–5799 (1991)), followed by rabbit anti-mouse IgG (Cappel) and Protein A-Sepharose beads (Pharmacia). The beads were washed three times in cold phosphate-buffered saline, and bound proteins were eluted by boiling in SDS-gel loading buffer. Proteins were resolved on a 12% SDS-polyacrylamide gel (Novex), and GST fusion proteins were detected by immunoblot analysis using anti-GST antibody.
Figures 7A, 7B: FIG. 7. Binding of E2F-2 protein to pRb60. Soluble *E. coli* lysates containing the indicated GST fusion protein were incubated in the presence (lanes 2, 4, 5, 7, 8, 10, 11, 13, 14) or absence (lanes 1, 3, 6, 9, 12) of 100 nM recombinant pRb60 and immunoprecipitated with an anti-pRb monoclonal antibody. The immunoprecipitate was analyzed by SDS-PAGE and "Western" blotting with an anti-GST polyclonal antibody. The positions of each GST fusion protein in the "Western" blot is indicated along the right side. […]

B1: GST alone (other)
chain: not shown
binding result: no binding (tested: 100 nM recombinant pRb60)
